The list shows a part of the results.
B1: PhoQ; a variant is named by its letters at X, in order, P23837 (parent)
chain: MKKLLRLFFPLSLRVRFLLATAAVVLVLSLAYGMVALIGYSVSFDKTTFRLLRGESNLFYTLAKWENNKLHVELPENIDKQSPTMTLIYDENGQLLWAQRDVPWLMKMIQPDWLKSNGFHEIEADVNDTSLLLSGDHSIQQQLQEVREDDDDAEMTHSVAVNVYPATSRMPKLTIVVVDTIPVELKSSYMVWSWFIYVLSANLLLVIPLLWVAAWWSLRPIEALAKEVRELEEHNRELLNPATTRELTSLVRNLNRLLKSERERYDKYRTTLTDLTHSLKTPLXXLQXXLRSLRSEKMSVSDAEPVMLEQISRISQQIGYYLHRASMRGGTLLSRELHPVAPLLDNLTSALNKVYQRKGVNISLDISPEISFVGEQNDFVEVMGNVLDNACKYCLEFVEISARQTDEHLYIVVEDDGPGIPLSKREVIFDRGQRVDTLRPGQGVGLAVAREITEQYEGKIVAGESMLGGARMEVIFGRQHSAPKDE

Variants of: B1
Assay: enrichment ratio after two sorts for PhoP signalling (ratio (wild type AVST 3.29)); higher = more functional
Conditions: with PhoP (E. coli)

Row | Variant | enrichment ratio
1 | DAYQ | ≤ 0.25
2 | YFAE | ≤ 0.25
3 | GDHG | ≤ 0.25
4 | LHIG | ≤ 0.25
5 | FFVA | ≤ 0.25
6 | FFKS | ≤ 0.25
7 | GQQS | ≤ 0.25
8 | FQKP | ≤ 0.25
9 | TTCG | 30.3
10 | MNWN | 15.4
11 | GVLD | ≤ 0.25
12 | ETHI | ≤ 0.25
13 | KDMG | ≤ 0.25
14 | FQHY | ≤ 0.25
15 | YQLR | ≤ 0.25
16 | SNML | 15.9
17 | MPVN | ≤ 0.25
18 | DVFT | ≤ 0.25
19 | RCFR | ≤ 0.25
20 | AQQD | ≤ 0.25
21 | TERH | ≤ 0.25
22 | IQIF | ≤ 0.25
23 | TKVN | 2.64
24 | PSPS | ≤ 0.25

Row | Variant | enrichment ratio
25 | HSFH | ≤ 0.25
26 | GIFP | ≤ 0.25
27 | HPRV | ≤ 0.25
28 | KTAV | ≤ 0.25
29 | WDYF | ≤ 0.25
30 | VGAP | ≤ 0.25
31 | RAIA | ≤ 0.25
32 | HPVI | ≤ 0.25
33 | MILR | 0.712
34 | QKYP | ≤ 0.25
35 | VGQP | ≤ 0.25
36 | RCYM | ≤ 0.25
37 | DIFV | ≤ 0.25
38 | DAMW | ≤ 0.25
39 | WFKP | ≤ 0.25
40 | QVAA | ≤ 0.25
41 | LAWP | 0.808
42 | WWPD | ≤ 0.25
43 | MHHV | ≤ 0.25
44 | NWHE | ≤ 0.25
45 | IKSH | ≤ 0.25
46 | NQVW | ≤ 0.25
47 | EMTV | ≤ 0.25
48 | ICWG | ≤ 0.25

Row | Variant | enrichment ratio
49 | GSPS | ≤ 0.25
50 | YCPY | ≤ 0.25
51 | MPMN | ≤ 0.25
52 | EPFL | ≤ 0.25
53 | VQQC | ≤ 0.25
54 | KVSF | ≤ 0.25
55 | ATQV | ≤ 0.25
56 | GWKG | ≤ 0.25
57 | PHKI | ≤ 0.25
58 | VKLD | ≤ 0.25
59 | NPTQ | ≤ 0.25
60 | FIMA | ≤ 0.25
61 | ENRW | ≤ 0.25
62 | SMAA | 6.43
63 | PNMS | ≤ 0.25
64 | GLLM | 9.19
65 | FFEL | ≤ 0.25
66 | GPNV | ≤ 0.25
67 | NHHP | ≤ 0.25
68 | AGEF | ≤ 0.25
69 | VCLS | 4.69
70 | GNFG | ≤ 0.25
71 | SMMW | ≤ 0.25
72 | DRWQ | ≤ 0.25

Row | Variant | enrichment ratio
73 | VIWY | ≤ 0.25
74 | FSVA | ≤ 0.25
75 | VWDS | ≤ 0.25
76 | ATRT | ≤ 0.25
77 | WDEM | ≤ 0.25
78 | DMWR | ≤ 0.25
79 | WRAS | ≤ 0.25
80 | FRFG | ≤ 0.25
81 | KSAL | ≤ 0.25
82 | IGSM | ≤ 0.25
83 | MDPF | ≤ 0.25
84 | DFSH | ≤ 0.25
85 | TNMV | 12.6
86 | GYIW | ≤ 0.25
87 | AYKK | ≤ 0.25
88 | HDQI | ≤ 0.25
89 | EKYR | ≤ 0.25
90 | CYFF | ≤ 0.25
91 | HLFD | ≤ 0.25
92 | YNHN | ≤ 0.25
93 | RESH | ≤ 0.25
94 | KSRY | ≤ 0.25
95 | YMWY | ≤ 0.25
96 | DGQK | ≤ 0.25

Row | Variant | enrichment ratio
97 | RLRP | ≤ 0.25
98 | FPCS | ≤ 0.25
99 | FAHS | ≤ 0.25
100 | RLKI | ≤ 0.25
101 | RDLY | ≤ 0.25
102 | YQDW | ≤ 0.25
103 | EQPP | ≤ 0.25
104 | DYNY | 1.23
105 | TTTV | 11
106 | NESD | ≤ 0.25
107 | YFWE | ≤ 0.25
108 | NPND | ≤ 0.25
109 | WNVR | ≤ 0.25
110 | MGTH | ≤ 0.25
111 | VHIT | ≤ 0.25
112 | RSFN | ≤ 0.25
113 | LLIL | ≤ 0.25
114 | WHCG | ≤ 0.25
115 | WSCI | ≤ 0.25
116 | SMVV | 8.39
117 | WNPG | ≤ 0.25
118 | HKML | ≤ 0.25
119 | TRLH | 6.28
120 | HKDI | ≤ 0.25

Row | Variant | enrichment ratio
121 | RDYF | ≤ 0.25
122 | EPTI | ≤ 0.25
123 | EGDW | ≤ 0.25
124 | AKYQ | ≤ 0.25
125 | DNHL | ≤ 0.25
126 | LACN | ≤ 0.25
127 | NIEM | ≤ 0.25
128 | DGYH | ≤ 0.25
129 | YQGH | ≤ 0.25
130 | SINC | 4.48
131 | INLT | ≤ 0.25
132 | YNSL | 1.06
133 | WRYL | ≤ 0.25
134 | AYTI | 0.326
135 | ERIA | ≤ 0.25
136 | LAEK | ≤ 0.25
137 | TSTS | 9.31
138 | MYQM | ≤ 0.25
139 | QRIV | ≤ 0.25
140 | TRWE | ≤ 0.25
141 | RKRV | ≤ 0.25
142 | GDMD | ≤ 0.25
143 | VDFF | ≤ 0.25
144 | IICR | ≤ 0.25

Row | Variant | enrichment ratio
145 | EKTL | ≤ 0.25
146 | FDRL | ≤ 0.25
147 | ELPT | ≤ 0.25
148 | WLCI | ≤ 0.25
149 | IFRE | ≤ 0.25
150 | KYCF | ≤ 0.25
151 | NYAA | ≤ 0.25
152 | EMTT | ≤ 0.25
153 | PNKV | ≤ 0.25
154 | HCDP | ≤ 0.25
155 | FEIS | 1.48
156 | IMFV | ≤ 0.25
157 | QSVL | ≤ 0.25
158 | NRHE | ≤ 0.25
159 | YWIY | ≤ 0.25
160 | VHVR | ≤ 0.25
161 | HWHR | ≤ 0.25
162 | QRVT | ≤ 0.25
163 | SKAA | 1.5
164 | KTRE | ≤ 0.25
165 | RFIF | ≤ 0.25
166 | LHCM | ≤ 0.25
167 | DVWE | ≤ 0.25
168 | IISF | ≤ 0.25

Row | Variant | enrichment ratio
169 | GWTH | ≤ 0.25
170 | QGCK | ≤ 0.25
171 | GILV | 10.9
172 | NQTP | ≤ 0.25
173 | FMFA | ≤ 0.25
174 | QKIH | ≤ 0.25
175 | GAQL | ≤ 0.25
176 | RGLH | ≤ 0.25
177 | MASW | ≤ 0.25
178 | FKDF | ≤ 0.25
179 | VATL | ≤ 0.25
180 | WLTG | ≤ 0.25
181 | YCKW | ≤ 0.25
182 | TRQW | ≤ 0.25
183 | YGSA | ≤ 0.25
184 | IRPP | ≤ 0.25
185 | RHLS | ≤ 0.25
186 | RHFY | ≤ 0.25
187 | HPED | ≤ 0.25
188 | IPWD | ≤ 0.25
189 | YETV | 2.22
190 | ENSQ | ≤ 0.25
191 | CSTL | ≤ 0.25
192 | KGLS | ≤ 0.25

Row | Variant | enrichment ratio
193 | WFNR | ≤ 0.25
194 | IKAS | ≤ 0.25
195 | DCLF | ≤ 0.25
196 | MWGQ | ≤ 0.25
197 | GANH | ≤ 0.25
198 | ETRK | ≤ 0.25
199 | AESE | ≤ 0.25
200 | PIQH | ≤ 0.25
201 | VCFP | ≤ 0.25
202 | FVRI | ≤ 0.25
203 | KFIL | 0.334
204 | GEYN | ≤ 0.25
205 | PVLW | ≤ 0.25
206 | FKVY | ≤ 0.25
207 | TKTR | ≤ 0.25
208 | SFEP | ≤ 0.25
209 | EVGK | ≤ 0.25
210 | ERSH | ≤ 0.25
211 | HWRH | ≤ 0.25
212 | LKPS | ≤ 0.25
213 | EIHT | ≤ 0.25
214 | EALF | ≤ 0.25
215 | LYEN | ≤ 0.25
216 | GGSD | ≤ 0.25

Row | Variant | enrichment ratio
217 | TYYY | 1.73
218 | SNHV | ≤ 0.25
219 | YCDN | ≤ 0.25
220 | WPIM | ≤ 0.25
221 | FMIT | ≤ 0.25
222 | FRPH | ≤ 0.25
223 | NASL | ≤ 0.25
224 | KIRR | ≤ 0.25
225 | PWFI | ≤ 0.25
226 | GSQH | ≤ 0.25
227 | DRDH | ≤ 0.25
228 | GTGY | ≤ 0.25
229 | GFNM | ≤ 0.25
230 | YKPQ | ≤ 0.25
231 | YNYT | ≤ 0.25
232 | DRER | ≤ 0.25
233 | NIVH | 1.68
234 | NFCI | ≤ 0.25
235 | GAGW | ≤ 0.25
236 | KGYK | ≤ 0.25
237 | WYAV | ≤ 0.25
238 | ACAL | 5
239 | YWCF | ≤ 0.25
240 | VFRW | ≤ 0.25

Row | Variant | enrichment ratio
241 | HPWA | ≤ 0.25
242 | FIWN | ≤ 0.25
243 | NCYE | ≤ 0.25
244 | MYIW | ≤ 0.25
245 | DFIG | ≤ 0.25
246 | SREN | ≤ 0.25
247 | MMHS | 0.501
248 | SQSG | 6.12
249 | NNLY | ≤ 0.25
250 | IKPY | ≤ 0.25
251 | FQTI | ≤ 0.25
252 | MNRD | ≤ 0.25
253 | KATR | ≤ 0.25
254 | QCAP | ≤ 0.25
255 | RKQI | ≤ 0.25
256 | RNML | ≤ 0.25
257 | NMSN | ≤ 0.25
258 | WACV | ≤ 0.25
259 | FYGP | ≤ 0.25
260 | AHLC | ≤ 0.25
261 | AYTP | 0.471
262 | RHRS | ≤ 0.25
263 | NTWE | ≤ 0.25
264 | EFDM | ≤ 0.25

Row | Variant | enrichment ratio
265 | RKTE | ≤ 0.25
266 | KSNV | ≤ 0.25
267 | SCQW | ≤ 0.25
268 | FLRA | ≤ 0.25
269 | LRLK | ≤ 0.25
270 | KYKW | ≤ 0.25
271 | MMWM | ≤ 0.25
272 | FWNF | ≤ 0.25
273 | DDPF | ≤ 0.25
274 | PKDY | ≤ 0.25
275 | PRTT | ≤ 0.25
276 | ELND | ≤ 0.25
277 | HVFR | ≤ 0.25
278 | HEIR | ≤ 0.25
279 | DGWC | ≤ 0.25
280 | DYYV | ≤ 0.25
281 | QLNQ | ≤ 0.25
282 | SGPH | ≤ 0.25
283 | HIRM | ≤ 0.25
284 | WPEL | ≤ 0.25
285 | RMSF | ≤ 0.25
286 | PPLE | ≤ 0.25
287 | HMCF | 2.28
288 | YEHC | ≤ 0.25

Row | Variant | enrichment ratio
289 | SQRH | ≤ 0.25
290 | WKPE | ≤ 0.25
291 | DITD | ≤ 0.25
292 | TEII | 0.267
293 | RTWC | ≤ 0.25
294 | YIWH | ≤ 0.25
295 | DKGS | ≤ 0.25
296 | KFAQ | ≤ 0.25
297 | SNWS | ≤ 0.25
298 | SPGD | ≤ 0.25
299 | HFFF | ≤ 0.25
300 | KICS | ≤ 0.25
301 | QDDD | ≤ 0.25
302 | MYKG | ≤ 0.25
303 | RELV | ≤ 0.25
304 | QNEF | ≤ 0.25
305 | NGFS | ≤ 0.25
306 | SIRC | ≤ 0.25

— a collection of fitness landscapes (doi:10.1126/science.1257360)
